According to PubChem BioAssay AID1240 (Sanford-Burnham Center for Chemical Genomics, 2008):
Among all 50,000 compounds or so, about 800 (1.6%) showed an effect of 50% or more. The list shows a part of the results.

What follows are compounds tested against Bcl-2-like protein 10 (Homo sapiens) (UniProt Q9HD36) (assay: Phenotype converters, Bcl-B/TR3 peptide binding displacement, primary biochemical FP (AID 1240;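 further: 0% = Bcl-B with tracer peptide and DMSO and 100% = tracer peptide lacking Bcl-B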)). Settings: GST-Bcl-B / FITC-TR3 peptide fluorescence polarization; stronger effect = higher value; compound at 3.75 mg/L.
Sequence of UniProt Q9HD36 (Q9HD36 whole entry, looked up): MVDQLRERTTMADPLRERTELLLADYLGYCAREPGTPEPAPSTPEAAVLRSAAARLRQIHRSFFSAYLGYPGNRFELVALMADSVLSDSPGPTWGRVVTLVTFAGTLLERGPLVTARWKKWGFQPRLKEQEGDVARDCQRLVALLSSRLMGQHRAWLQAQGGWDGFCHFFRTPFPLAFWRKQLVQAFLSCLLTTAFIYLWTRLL

SMILES | displacement
O=C(Nc1cccc2ccccc12)N(Cc1ccccc1)Cc1ccccc1 | -9%
CSc1ccccc1NC(=O)c1nn2c(c1Br)NC(c1ccccc1)CC2C(F)(F)F (stereo unspecified) | 2.7%
S=C(Nc1ccccc1)Nc1ccc(Nc2ccccc2)cc1 | -3.1%
CC(C)(C)C#C/C=N/n1nnc(-c2ccccc2)n1 | 13.6%
CC1(C)Cc2ccccc2C(NN=C2CCCCC2)=N1 | -7.3%
O=C(N/C(=C/c1ccc2c(c1)OCO2)C(=O)N1CCOCC1)c1ccco1 | 6.1%
C/C(=N\Nc1nnc2c(n1)[nH]c1ccccc12)c1ccccn1 | 21.4%
Cc1ccc(OCC(=O)Nc2nc(-c3ccccc3)cs2)cc1C | -7.3%
Fc1ccc(COC(CN2CCCCC2)CN2CCCCC2)cc1 | 0.1%
O=C(N/C(=C/c1ccc(Br)cc1)C(=O)N1CCCC1)c1cccs1 | -11.3%
C=CCN1C(=O)C(Cc2ccc(OC)cc2)S/C1=N\N=C\c1cccs1 (stereo unspecified) | 12.8%
CCN1C(=O)/C(=C/c2cccs2)SC1=S | -2.3%
O=C(Nc1ccc2nn(-c3ccc(Cl)cc3)nc2c1)c1ccc2c(c1)OCCO2 | 13.1%
COc1cccc(OCCCCN2CCC(C)CC2)c1 | -6%
COc1cccc(/C=C2\SC(=S)N(CC(=O)Nc3nccs3)C2=O)c1 | 49.7%
COc1cccc(/C=C/C2=NN(c3ccc(F)cc3)C(c3cccc(OC)c3OC)C2)c1OC (stereo unspecified) | 7.8%
CCOC(=O)c1cccc(N2C(=O)C3C4C=CC(C4)C3C2=O)c1 (stereo unspecified) | -6.9%
Cc1ccccc1NCC(=O)N/N=C\c1ccccc1O | -13.3%
CCC(C)NC(=O)Nc1ccc(Cl)cc1 (stereo unspecified) | 2.7%
N#Cc1c(N)sc2c1CCCCCC2 | 18.3%
O=C(Nc1ccc(Nc2ccccc2)cc1)c1ccc(Cl)cc1Cl | -13.5%
Cc1ccc(C(=O)O)cc1NC(=O)C1C2CCC(C2)C1C(=O)O (stereo unspecified) | -2.4%
COc1ccc(N(CC(=O)O)S(=O)(=O)c2ccc(C)cc2)c(OC)c1 | 2.5%

SMILES | displacement
Cc1ccc(S(=O)(=O)NC(C)(C)CN2CCCCC2)cc1 | -2.6%
CCOc1ccc(C(=O)Nc2cc(OC)ccc2OC)cc1[N+](=O)[O-] | 7.8%
O=C(Nc1ccc(Cl)c(Cl)c1)Nc1nnc(SCc2ccccc2)s1 | 3.9%
O=C(NC1CC1)c1cc(-c2cccs2)nc2ccccc12 | -3.9%
Cc1ccc(OCC(=O)N/N=C\c2ccc(-c3ccc(Cl)cc3)o2)cc1 | 38.4%
Cc1cc(OCC(=O)Nc2ccc([N+](=O)[O-])cc2)cc(C)c1Cl | 26.7%
O=C(Cc1ccccc1)NCc1ccco1 | -2.5%
Cc1ccc(C(=O)Nc2cc(-c3ccc(F)cc3)[nH]n2)cc1 | 11.8%
O=C(O)CCCCCN1C(=O)C(O)=C(C(=O)/C=C/c2ccccc2)C1c1ccc([N+](=O)[O-])cc1 (stereo unspecified) | -4.6%
Cc1c(N=Cc2cccc(Cl)c2)cccc1[N+](=O)[O-] | 10.3%
NC(=O)C1CCN(C(=O)COc2ccc(Br)cc2)CC1 | -0.3%
COc1ccc(OCC2CNC(=O)O2)cc1 (stereo unspecified) | -8.5%
COc1cc(NS(=O)(=O)c2ccc(NC(=S)NC(=O)/C=C/c3ccc(F)cc3)cc2)ncn1 | 18.6%
COc1cc(/C=C(\C#N)C(=O)Nc2cccc(Cl)c2)ccc1O | -56.2%
COc1cc(/C=N/n2cnnc2)cc(OC)c1O | 9.4%
O=C(CSc1nc2ccc([N+](=O)[O-])cc2s1)NCc1ccccc1 | -7.6%
CC(=O)Nc1ccc(N=Cc2ccc(Cl)c([N+](=O)[O-])c2)cc1 | -3%
O=[N+]([O-])c1ccc(NCCCNS(=O)(=O)c2ccccc2)c(C(F)(F)F)c1 | 10.5%
O=S(=O)(N/N=C/c1ccc(Br)cc1)c1ccccc1 | 5.1%
C/C(=N\Nc1nc(-c2ccccc2)nc(C)c1C)c1cccc([N+](=O)[O-])c1 | -11.6%
CCC(=O)Nc1cc2nn(-c3ccc(OC)cc3)nc2cc1C | 4.7%
Cc1cc(C(=O)Oc2ccc(Cl)cc2)ccc1[N+](=O)[O-] | 1.3%
Cc1ccc(-c2ccc(OCC(=O)Nc3ccc(S(=O)(=O)Nc4nccs4)cc3)cc2)cc1 | -13.2%

SMILES | displacement
O=C(NCCNc1ccc([N+](=O)[O-])cc1)c1ccccc1F | 10%
O=C(/C=C/c1ccc(OC2CSC2)cc1)c1ccccc1 | 5.2%
CCOC(=O)c1c(N)sc2c1CC(C)(C)NC2(C)C | 11.2%
COc1cccc(-c2cc(C(=O)NC(C)c3ccccc3)c3ccccc3n2)c1 (stereo unspecified) | 33.6%
CC(=O)Nc1nc(-c2ccc(C)c(C)c2)cs1 | 8.1%
COc1ccc2c(=O)c(Oc3ccccc3Br)c(C(F)(F)F)oc2c1 | 14.1%
O=C(c1sc2ccccc2c1Cl)N1CCC(Cc2ccccc2)CC1 | 6.5%
COC(=O)c1sccc1NC(=O)c1cccc(Cl)c1 | -8.6%
Cc1ccc(N2C(=O)CSC2c2ccc(F)cc2)cc1 (stereo unspecified) | -5.1%
N#C/C(=C/c1cccnc1)C(=O)Nc1cccc(Br)c1 | -15.9%
CS(=O)(=O)N(CC(N)=O)c1cccc(Cl)c1 | -9.8%
COCCNC(=O)C(=O)NCc1ccc(C)cc1 | 5.4%
CC(Nc1cccc2ccccc12)C(=O)N/N=C/c1ccc(O)cc1O (stereo unspecified) | -1.3%
O=C(Cc1ccccc1)N1N=C(c2ccccc2)CC1(O)C(F)(F)F (stereo unspecified) | 10.1%
CCc1ccc(NC(=O)/C=C/c2ccc(OC)cc2)cc1 | -2.2%
O=C(CC(CC(=O)c1nc2ccccc2s1)c1ccccn1)c1nc2ccccc2s1 | 23.1%
O=C(CNC1CCCCC1)Nc1c2c(nc3ccccc13)CCC2 | -8.4%
O=C(NCCNc1ccc([N+](=O)[O-])cc1)c1cccc(Br)c1 | 16.4%
O=C1c2ccccc2NC(c2ccc(F)cc2)N1c1ccccc1 (stereo unspecified) | -14.5%
COC(=O)c1ccc(-n2c(C)cc(/C=C3\C(=O)NC(=O)N(c4ccc(OC)cc4)C3=O)c2C)cc1 | 115%
COc1cccc(/C=C2\SC(=S)N(NC(=O)c3ccncc3)C2=O)c1 | -7.6%
CCN(CC)S(=O)(=O)c1ccc(NC(=O)c2ccc(Cl)cc2)cc1 | -6.3%
COc1cc(NC(C)=O)c(OC)cc1Cl | -13.3%

SMILES | displacement
CCCC(=O)NC(c1ccc([N+](=O)[O-])cc1)c1c(O)ccc2ccccc12 (stereo unspecified) | -7.6%
CN(C)c1ccc(NC(=O)C(N)=O)cc1 | 5.1%
O=[N+]([O-])c1ccc(-c2ccc(/C=C/c3ccncc3)o2)cc1 | 7.5%
COc1cc(OC)c(/C=C2\C(=O)NC(=O)N(c3ccc(Cl)cc3)C2=O)cc1Br | 6.4%
Cc1ccc(S(=O)(=O)N2CCOCC2)cc1S(=O)(=O)N1CCOCC1 | -5.8%
CC(C)(C)c1ccc(C(=O)NCCOCc2ccccc2)cc1 | -8.4%
Cc1[nH]nc2c1C(C1CC=CCC1)C(C#N)=C(N)O2 (stereo unspecified) | -4.6%
Cc1nnc(C)n1/N=C/c1ccc(O)c(O)c1 | 15.9%
CC(Oc1ccc(Cl)cc1Cl)C(=O)NC12CC3CC(CC(C3)C1)C2 (stereo unspecified) | -11.1%
O=C(NC(=S)Nc1cccc2ccccc12)c1ccco1 | 11.2%
CN(C)c1ccc(-c2nc3ccccn3c2/N=C/c2cccc([N+](=O)[O-])c2O)cc1 | 10.6%
COc1ccc(CCNC(=O)c2ccc(C(C)(C)C)cc2)cc1OC | -3.5%
CC1=C(C(=O)Nc2ccccc2C)C(c2ccccc2)NC(=O)N1C (stereo unspecified) | 10.2%
COc1c(Cl)cc(C(=O)Nc2ccc(Cc3ccncc3)cc2)cc1Cl | -12.1%
Cc1cc2nc(-c3cc(NC(=O)Cc4ccccc4)ccc3Cl)oc2cc1C | 9.5%
O=C(CCCN1C(=O)c2cccc3cccc(c23)C1=O)N1CCc2ccccc2C1 | 8%
O=C(CC(c1ccccc1)S(=O)(=O)c1ccccc1)c1ccccc1 (stereo unspecified) | 5.1%
COc1ccc([N+](=O)[O-])cc1N(CC(O)CN1CCOCC1)S(=O)(=O)c1ccc(C)cc1 (stereo unspecified) | -1%
CN(C)c1ccc(C2/C(=C(/O)c3ccccc3)C(=O)C(=O)N2Cc2ccccc2)cc1 (stereo unspecified) | 2%
O=C(NCCNc1ccc(Cl)cc1[N+](=O)[O-])c1ccc2c(c1)OCCO2 | -0.2%
O=S(=O)(Nc1nccs1)c1ccc2ccccc2c1 | -4%
O=C(NN=C1CCCCC1)c1ccc(O)cc1 | 8.3%
CC(C)CC(C(=O)O)N1C(=O)C2C3C=CC(C2C1=O)C1C(=O)N(C(CC(C)C)C(=O)O)C(=O)C31 (stereo unspecified) | -2.8%

SMILES | displacement
CCc1cc(=O)oc2cc(C)cc(O)c12 | 9.2%
COC(=O)c1c(C)oc2ccc(OCc3ccc(C)cc3)cc12 | 5.9%
CCOc1cccc(-c2cc(C(=O)N3CCN(Cc4ccccc4)CC3)c3ccccc3n2)c1 | -3.4%
COc1ccc(C2Nc3ccccc3NC3=C2C(=O)CC(c2ccc(Cl)cc2)C3)cc1OC (stereo unspecified) | 9.5%
COc1cccc(OC)c1C(=O)Nc1cccc(Oc2ccc3c(c2)C(=O)N(c2ccccc2)C3=O)c1 | 4.6%
O=C1c2ccccc2C(=O)N1CNc1ccc(Cc2ccc(NCN3C(=O)c4ccccc4C3=O)cc2)cc1 | 6.1%
COc1ccc(C2CC(=O)C3=C(C2)Nc2ccccc2NC3c2cccc(Cl)c2Cl)cc1OC (stereo unspecified) | 6.4%
O=C(NC1CCCCC1)c1cccc(Cl)c1 | 11.4%
O=C1CC(c2cccc(C(F)(F)F)c2)c2ccc3ccccc3c2N1 (stereo unspecified) | -21.7%
CN1C(c2ccccc2)CC(=NO)CC1c1ccccc1 (stereo unspecified) | -4.2%
COc1cc(/C=N/Nc2nc(N3CCOCC3)nc(N3CCOCC3)n2)cc(OC)c1 | 4.8%
Cc1c(Cl)cccc1NC(=O)c1ccccc1C(=O)O | -2.9%
COc1ccc(NC(=O)c2cnn3c2NC(c2cccs2)CC3C(F)(F)F)cc1OC (stereo unspecified) | 2.1%
CC1(C)CC(OC(=O)/C=C\C(=O)OC2CC(C)(C)NC(C)(C)C2)CC(C)(C)N1 | -1.2%
CC(=O)N1CCN(c2ccc(C(=O)c3ccccc3)cc2F)CC1 | 0.4%
O=C(c1cnn2c1NC(c1ccc(Br)cc1)CC2C(F)(F)F)N1CCOCC1 (stereo unspecified) | 5.9%
Cc1ccc(-c2csc(NC(=O)c3ccc([N+](=O)[O-])c(C)c3)n2)cc1 | -4.3%
CCCCOc1ccc2c(C)c(Cl)c(=O)oc2c1 | 4.6%
O=C(CSc1nc2ccccc2[nH]1)Nc1ccc(F)c(Cl)c1 | -7.1%
